In all, about 33,000 sequences were measured (“E-score (-0.5 to 0.5)”: median about -0.054, highest 2% from about 0.39 on). The list shows a part of the results.

This assay concerns the target Ylr278c (UniProt Q05854). Briefly: PBM E-score (8-mer binding enrichment) (E-score (-0.5 to 0.5)); higher = stronger / more preferred TF binding; most listed sequences are background and not binding sites. Conditions: protein concentration: 200 nM; construct: GST-DNA-binding domain. A digest of the protocol: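 GST-tagged yeast TFs (full-length or DNA-binding domain) were made by PURExpress in vitro transcription/translation and applied at about 100-200 nM to universal all-10-mer Agilent arrays. The arrays were made double-stranded by primer extension, on fresh or once-stripped slides. Bound protein was detected with fluorescent anti-GST, and scans were normalised with masliner. Each ungapped eight-base word, pooled with its reverse complement, received an E-score (modified Wilcoxon-Mann-Whitney statistic) from the Universal PBM Analysis Suite.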
With AATGTGAC, the “PBM E-score” value was -0.2.
For GAGCGGAA the value was 0.336; for CACGAGGG, 0.0432; for AGGACTAA, -0.0624.
As for ACAGGTAG, the figure is -0.278.
For AGCAAGGA the value was -0.227; for AAACGCGC, -0.00658.
For CGTGTGCA, the “PBM E-score” value is -0.0995.
As for CACCCGTC, the figure is 0.0425.
As for CAAGTGGG, the figure is -0.0657; as for CAACGGCC, 0.102; as for AAGTGTAA, -0.163.
For ACTCACTG the value was -0.148.
On to AACAACAA, for which the “PBM E-score” value is -0.202.
For the sequence GATCTCAC, the “PBM E-score” value was found to be 0.0769.
For TCTCGTCA the value was -0.168.
For ATCTATGC the value was -0.149.
As for CCGACTAA, the figure is 0.271; as for AAGATCAA, -0.107; as for GACACTAA, 0.0137.
As for AATAGCCA, the “PBM E-score” value is -0.256.
GTTGCAAA: the “PBM E-score” value amounted to 0.0792.
For AATTAATC the value was -0.0237.
On to AGGGTCTC, for which the “PBM E-score” value was -0.204.
For CTGCATGC the value was -0.101; for CTCCGCGC, 0.429.
As for AGTGCCTC, the figure is -0.24.
Consider CGCGATAG, for which the “PBM E-score” value worked out at 0.0638.
On to AAACGCAC, for which the “PBM E-score” value is -0.0305.
As for GAGAACTC, the figure is -0.0192.
On to AACAGCCC, for which the “PBM E-score” value is -0.0466.
As for ATCGTACG, the figure is -0.0639; as for CCCAGGTA, -0.243.
For CCCCTCGA the value was 0.0206; for CAATGGGC, -0.106; for GCTTATAC, -0.0532.
As for AGAGAGTA, the figure is -0.0223.
On to TCTGGAAA, for which the “PBM E-score” value is -0.215.
For GAGGCAAC the value was -0.024; for AAGGGATG, -0.173; for TCCACCGA, 0.0899.
Regarding CGCTGCTA, the “PBM E-score” value is -0.0685.
For GTTGGTAA the value was -0.224.
As for ACGTCCAA, the figure is 0.0759; as for CGTGGAGA, -0.0657; as for ACGATTCG, 0.114.
As for GGCTTAAC, the “PBM E-score” value is -0.073.
For ATGAGCGG the value was 0.151; for AGACGACA, -0.0238; for ACCATAAG, -0.284.
For ATATCTGA the value was 0.042.
As for GAGATTGA, the figure is -0.0337; as for CATTCCCA, -0.0686; as for ATGCCGCA, 0.2.
On to ACCTGGAA, for which the “PBM E-score” value was -0.0949.
Take CAGACGTA: the “PBM E-score” value was -0.145.
As for GACCAAGA, the figure is -0.0615; as for TTCACAAA, 0.00647.
For CAGGGATA the value was -0.242; for CCCAGCTA, -0.249; for GCTCATCC, -0.0325.
As for AAACCGCC, the figure is 0.217; as for CGCACGTA, -0.121.
For ACGCCCCC, the “PBM E-score” value is 0.069.
As for TTACCTAA, the figure is -0.0277; as for GAATATTA, 0.0567.
For GGGCGTAC the value was 0.0219.
For ACCATTTA the value was -0.0182; for CTGCGGTA, 0.0417; for CCAATGCG, -0.0595.
Take GTTGAAGA: the “PBM E-score” value is -0.25.
For CGCCCAAC the value was 0.0317; for CAATGCGA, -0.101.
As for ACCGCTGG, the figure is -0.15; as for AGGGACAG, -0.356; as for AGAGTAAT, 0.0395.
As for TCATTGCA, the figure is -0.214; as for TCTCAACA, -0.171.
Consider GAACTCGC, for which the “PBM E-score” value is -0.0634.
For CCCGCGCC the value was 0.315; for AGAACGTA, -0.147; for AATTAGCG, 0.176.
For ACTTCCAG the value was -0.106; for AGTAGCCG, 0.153.
As for GAAGAGGA, the figure is -0.185; as for ACTCTTCT, -0.197.
Turning to AGGTCCGA, the “PBM E-score” value worked out at 0.404.
On to CTAGCTCC, for which the “PBM E-score” value turned out to be 0.184.
For ATTCTAAG the value was -0.0468; for AATGTCTC, 0.0265; for AACAATGA, -0.0711.
For CCCTCCCC the value was 0.233; for CCACCCCG, 0.244; for CCTCAAAC, 0.023.

The values are drawn from the supplement of paper PMC3334620.
